# Results from PMC10726135.
# The other results are listed elsewhere or left out. At the low end of the ranking, values are background and their order means little. The protein was read in a cell extract, so binding may be indirect.
# Target: T1, HNF4alpha2 (COS-7 nuclear extract) (UniProt P41235)
# T1 sequence: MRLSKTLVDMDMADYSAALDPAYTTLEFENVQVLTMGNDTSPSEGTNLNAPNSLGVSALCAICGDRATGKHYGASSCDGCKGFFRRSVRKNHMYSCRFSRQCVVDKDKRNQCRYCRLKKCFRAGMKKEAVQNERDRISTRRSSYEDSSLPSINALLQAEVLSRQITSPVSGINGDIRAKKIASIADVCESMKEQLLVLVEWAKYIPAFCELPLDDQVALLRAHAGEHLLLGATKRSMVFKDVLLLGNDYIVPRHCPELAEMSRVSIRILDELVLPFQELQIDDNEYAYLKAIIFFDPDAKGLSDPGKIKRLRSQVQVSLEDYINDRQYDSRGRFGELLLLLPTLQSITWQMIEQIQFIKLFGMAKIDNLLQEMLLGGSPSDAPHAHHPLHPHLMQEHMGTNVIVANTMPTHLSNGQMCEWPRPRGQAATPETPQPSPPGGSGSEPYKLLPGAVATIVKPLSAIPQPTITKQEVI
# Assay: protein-binding microarray
# Settings: COS-7 nuclear extract on double-stranded Agilent 4x180k PBM; binding buffer, salt, pH and temperature not given; high values mean tight binding; double strand, one strand shown; sequences stand for … in …GCCTAGGGAGATTAGAGTATCGGTCGA
row,Sequence,binding signal (log2 normalized intensity)
1,CTTCGGCCAGCACAGGAGGCCTCTCAAAGC,-1.07
2,GCTACACAGATAAGCCATTCGTAACCTTCA,-0.598
3,GACATTCAATTGCAAGCTTATCTTCCCAGG,-0.941
4,TGAATGTCCAACTTGCCCTGGTCTCACATC,0.676
5,CACGTGGCTAGATTGCAACCAAGTCCATCT,0.0671
6,TAATTCTTCAAAGGAGTGGAGGAAGGAAGA,-0.71
7,GGAATGAAAGGAGGTCATGTACATGAAAGC,1.64
8,AGCACCTGAAGAATTTGGACTTTGCACTAA,8.43
9,CGGCTGGTATCCACAGGAGGCCCCATCGCA,-1.17
10,AATGGCAGACTAAACTCACAATGGGGCATG,-1.06
11,AGGGTTGGAATGTCTTTGGGTGGAGGGGAG,-0.603
12,TAAACAGTGACTCATGCAAGCCTGAGGGAG,-1.1
13,CGAGAGAGCCTGGACACACGAATAATGGAG,-1.18
14,AAACCTGGTAGCGTGTAGTAAAGCTCATGA,-1.08
15,AAGCAAACATACTGCTTATTTAAATTTCTT,-1.13
16,GCTCTCCGTGGACTTTGCCCCCTACAGTTT,9.73
17,TCTGATGGCGTATGCAGCAGGGCAGCAGCC,-1.02
18,GTAGAGAGCAGTCCTGCACATGAATGATCA,-0.769
19,TTTTGTAGATGCCTGCTTTCCACTCCCATT,1.36
20,GGAGGTCTGGAATGTGGAGAATGGCAAGAG,-0.483
21,AACTTCTTATCACTTGGTGGACATGGTTCA,2.02
22,TTGAATTCCTTCTTCTTCTGGGGACTTCGG,1.92
23,CTTCAAACCTGGGAAAACTTACGCACATTA,-1.07
24,GTTAGTGCCCTCTGGTGGCACACAGAGGAC,-0.856
25,GGAGCATCTATTTTCTATTTCCACTGAGGT,0.713

row,Sequence,binding signal (log2 normalized intensity)
1,TGGACTTTTATGTTAAGATCAAACAGGGAC,0.692
2,TGAAACATATCCAGAATGTGTTTGCTTTTT,1.55
3,ATTCCAAAAAGCTTTTGTCATGACCTTCGC,4.71
4,TAAAGTGACTAGAGAGCAGGAGCCACCTGT,-1.2
5,CCTCCTAAGTAGCCAAGATTACAGCCACAT,-1.07
6,CCAGCCAGTAGGAGTTGGAACGGGGGCAAG,-1.12
7,ACAGGTGTGGGTTCAAATCCATTCAGCAGC,0.0414
8,GGCTTCTTATCAGCAGCTGGGGTGACTGAT,1.19
9,GCAGAGAAGACTTGGGGGAGGAGGGCAACC,-1.08
10,TCTCGGTCAAACCTTTGACCCTTTATAATC,5.95
11,AAGTCAGAGGCCCAGCAAGGAGAAAGCGAG,-1.2
12,TGCTCCAGGCCGGCTTGCGTCCCCAGGTGA,-1.03
13,ACTTAGGACACAAAGAGTTCAGAGAGGGAT,-0.914
14,CGCCGGGCGCCGCTCTGAGTGACCTTTCAC,4.57
15,TGAAGACAGGCCAGGGTGATCAAACATCAC,-1.18
16,CTGGCTGGGCAGGCTCCCTCCCTGGGAGGC,-1.01
17,TCATTCCTCAAATGCTCCTTTGAACAACTC,0.907
18,TCCAAAGGTAATGGTCTCTCCCAGCGGGTC,-0.215
19,GTCTCTCTCATTCACACCCTCAGCTGATGG,-1.18
20,GAGGATGGGAAGTCCAAAGTCTGCAGGGTA,3.1
21,AAGCCTGATGAAGCCTATAGTGCTCCCTCC,-1.21
22,CACAGCAGAGGAGCCCTGGGCTCAGAAATC,-1.19
23,CAAACGCCCCTTGGATGAATGGCTGATTGG,0.0149
24,CAGGTTCTGCAACACTTTCTAAGGACACAA,-0.856
25,ACTTCGACCTCACATTGTAGCTAAAATGTT,0.48

row,Sequence,binding signal (log2 normalized intensity)
1,TGTTTAGCCCAATAAAATCTGGCAGCTTAA,-1.16
2,AGTAGGCACTATTATCCCCCTATCCCAAGA,4.83
3,TATTGGGAGGCCCATTGTGCTGGGGGCAAG,1.55
4,TCCTCTATCTTCAAAGCCAGCAACGGTGAG,0.28
5,CAGTTGACCTTTGAACACCACAAGTTTGAA,6.31
6,GCAAAGATCAGTGAGAAGAGAAACACATGC,-1.15
7,ATTCCAGGAAGGTCTGATGGGCCAGGCAGG,-1.14
8,GTGGTGTCTTACCGGGATTTTGTTGGGGAA,1.09
9,GCCGGCTCTGAAGAGAACGGCTGATTCTGA,-1.26
10,TTGAAATGTTATCATTAGGGAAAATAGTGA,1.31
11,TCCTCCTTTTTTTTTTCAAGTGTTAGCTGT,1.74
12,CCTGGGTCAAATTGGTGCTTTCATCCCCTG,1.56
13,AAAGTGACCCTCTGCCCCCTACACAGAGGA,4.47
14,ACGACTTGCTTATCTTACGCAACTGAAATT,-1.12
15,GCACGAAAAACAGGTAGTTTGCAGTCTGAG,0.261
16,GTGACGGAGGTGACCTTTGGTTGTCCTTAC,4.31
17,AACACCAGCAACCGCCTACCTTTGGACTTC,5.43
18,ACTGAGAAACCAAGATCCTAGTCTTTAGAG,-1.17
19,GCTCAGTGCCTTCTCTAATGACTGATAATT,1.14
20,GGCATCATAAACTCCAACTCAGCCCCCAGC,4.6
21,AGCCTTGAATTGGCATGAGATCCACCTAAG,-1.07
22,GGACAGCAGAGTGGAGGCCAGCGCCAGGCT,-1.13
23,AGGGAGGAGGGATCAAGCAGGTGACCTTCG,3.3
24,TGCAGCCCACAGCCCGCTGTGCCTGTCACC,-0.97
25,GGCATATCTTTTTATCTCTGAATCCTCAAC,0.608

row,Sequence,binding signal (log2 normalized intensity)
1,CGCTCCCCTCCCCCACCCGCGGTCCGTCCC,5.86
2,CTAGCCCCGCCCAGATGTCTGGCTAAGACC,3.07
3,GCTGATAATGGAATTGACATTCAATTGCAA,-1.04
4,GAACTGGTCCGGCCCGACTCACGACCCCGC,1.98
5,CGTCAAGGTGAAAAGCCTTTTGAAGAAACC,-0.662
6,AGATGGCATCACTCTTGCCACAGAACAGGC,-1.14
7,CCACAGGTATTCTTTCATCCCTCTCCCGCC,2.36
8,TTGTGCAAGAATGCGTCATCCGCATCTGAA,-1.01
9,CGCTGACTCCGGGGAGCAGGCAGAGGAACA,-0.997
10,AGACTCAACACCCAGGCTTATCTCACTCCA,-1.09
11,ACAACGAGGTGCCAGAAACCTGACTTCCAA,-1.13
12,TCACTTTTTATCTGCCTTTTATCTATTTGT,1.6
13,AAAGACCCTAAACCTGTTGGGTCAGGCTGC,-1.13
14,TCACTATTGACATTTGGGGTCAGATAATTC,2.5
15,CCCCTTGAGACTTTAATCTCTCCTCTGACA,-0.4
16,GCCGATCACTGGCCCAGCTGGTTTGAAGAA,-0.927
17,AGTTTGGAGATGCCGTTAAGCAGATAAGGT,0.185
18,AACAAAGGTCGGTGGTATGTGTGTGCTTTA,2.16
19,AAGGACCTCCTGAGATAGGTATGATAACCC,0.367
20,GACCTTTGCTCATGACTATTCTCTAAACTC,3.93
21,AATTTATAGGCACTAGGTGTTCCTCAGCCT,-1.19
22,AGAAACTCAATCGCCTTTTATTTTTCCCCT,1.9
23,GAATTTGGTTACTCGCCTTAGAAATATTCA,-0.82
24,CATGGAGGATTTAGATAACATCTTTTCTCA,-0.37
25,GTAAACTCCCTTTGATGCGGTCAGAGTTCA,3.08

row,Sequence,binding signal (log2 normalized intensity)
1,CTTTTATAAGGGGCAGCAAACCTACCTGAA,-1.22
2,GTTATGGCACCAAGAAACCTTTCCCTCTCT,-1
3,TGAAACTATAAACTTGGTTACAGGACCAGG,-1.09
4,ATACAACCTCTGTAATAACTGCAGTGCCAC,0.975
5,GATCAAAGGTCGGTTTTAGGACAACATGAG,4.52
6,CCTCAAAGTGGACTTTAGAACCCAAATAGA,5.84
7,TTATTTAAGATTGAGAACTTTGACACCGAG,2.36
8,ATCTTCCAAATTCTCCCAGGCCATACAGAT,1.01
9,TGTACAGGACCATGTTCTCCTAAAGTGACT,-0.786
10,CTGCTTATCTAGGATGAGAATCCACCTGCC,-1.07
11,GAAACTTATTGTGAACTGGAGCAAAGGTCA,5.28
12,GGCCAGGAACGTCACACTGAAAGCTATCCC,-1.18
13,GGGTGTCAAAGCCCAACCAGGATAGGGAGG,-1.11
14,AAAATTCAACAAGACCCTGCCCTTTCCCCC,4.72
15,TAATTTAGATATCGCTCCAAGAGCCAACAG,-1.2
16,CTCAAGAAAGAGGTGGTTCTTTCTGAGTTG,0.826
17,GCCCCTGGGTCGTTGGTGCTCCCCCACCCT,4.52
18,CCCATTCCTTCTCACCGGGTGGAGCCTCAC,0.242
19,ATGGGAAGCCTCAGGAGTTGGAGGAACAGG,-1.19
20,GGGCAGTGTTTGCCCAGCTTGAATCACTCA,-0.581
21,GTCAAATTGGTGCTTTCATCCCCTGCATCC,2.05
22,AAATAACGAAGGCATTCTTAACAAAACCTG,-0.985
23,ACTGAGCTTTAGATAGCTGTTAAATGGAGT,0.814
24,GTACACAAAGGTATCAGGGCTCAGGAATGT,-1.18
25,GCTTCTCCTGGCTTTAGATATCAGAAATGC,0.123

row,Sequence,binding signal (log2 normalized intensity)
1,AGGAGGAGGCCTAGGCAGTCCACAGACAAA,-1.07
2,GTAACCACAGTACTGTCTTTTTGCCACTAG,-1.11
3,CTCTCAACTCAGTGAGGGCTATTGACAAAG,-0.637
4,TGACTAGAGAGCAGGAGCCACCTGTCACTC,-1.24
5,TAGAATCTTAGGAAAGCACAGCTGATTGCT,-1.1
6,CCCTGCCACTCTTTTTTAGACTTTGACCTC,10
7,GATGGTGAGTTCTGTCCTTTGTCCCACATC,2.26
8,TCAATTTACCTCTGCTCCCCCTGCCCTTCG,4.23
9,CCTCTAGTGGCCCAGTGTCTCTGGGCGCTG,-1.2
10,TGCCCTCTTGTCCTTCCCCTTTTGTGTTTG,2.91
11,AGAAACCTCAAAGGTTAGGGGGATTCTGGC,-0.969
12,GGCTAAGGTCACCATGACCATAAACCACAA,-1.21
13,GGTGAACTCAGTCCTTTCAGGACACCTTCA,-1.07
14,GGATGCCCTTTGACCTCTGCTTCCTGCTAC,5.58
15,TGGGCTTGCCTAAGACATGCTCGCAGCTGC,-1.12
16,TATCTGTTAGGGCCATTTGGTCTGTAGTGT,2.35
17,CAGAGATACTATTGATAACATCTAACAGCT,-1.29
18,GCAGGGGGCCAAGGGATACCCTGAGAGATC,-1.17
19,TATGACCTTTGCTTTTCAAGATTTTACCTA,2.14
20,AAAGAGGGCCCCATCATGTGTACAGAGCTG,-1.19
